According to PMC3638400 (Philosophical Transactions of the Royal Society B: …, 2013):

Molecular target: the molecule itself
Assay: SEC; Superformance column packed with Fractogel EMD BioSEC, calibrated with protein standards; 20 mM Tris-HCl pH 7.4, 100 mM NaCl, room temperature; self-association into oligomers

B1: R140G HSP27 (natural protein)
chain: not shown
notes: HSP27 (HSPB1), human, with R140G (the equivalent of R120G in CRYAB); also called HSP27 R140G
binding result: binds
